# Publication PMC9911399, “Two distinct binding modes provide the RNA-binding protein RbFox with extraordinary sequence specificity”
# Where a chain is given by its changes, count along the chain named. This is one part of the list.
# T1: RBFOX1 RRM (Homo sapiens, UniProt Q9NWB1 109-208)
# T1 sequence: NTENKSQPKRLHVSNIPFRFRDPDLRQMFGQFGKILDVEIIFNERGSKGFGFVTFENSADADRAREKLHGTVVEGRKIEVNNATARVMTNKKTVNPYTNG
# B1: CGAAAAG (DNA:RNA)
# RNA: GGGAGACCGGAAUUCAGAUUGUCCCGAAAAGUUAAAUCCCGUCGUAGCCACCA
# DNA 1: CAATCTGAATTCCGGTCTCCC
# DNA 2: TGGTGGCTACGACGGGATT
# B2: GACCCUU (DNA:RNA)
# RNA: GGGAGACCGGAAUUCAGAUUGUCCGACCCUUUUAAAUCCCGUCGUAGCCACCA
# DNA 1: CAATCTGAATTCCGGTCTCCC
# DNA 2: TGGTGGCTACGACGGGATT
# B3: GGUACCA (DNA:RNA)
# RNA: B1 RNA with C25G, A27U, A29C, A30C, G31A
# DNA 1: CAATCTGAATTCCGGTCTCCC
# DNA 2: TGGTGGCTACGACGGGATT
# B4: AUUAAUC (DNA:RNA)
# RNA: B1 RNA with C25A, G26U, A27U, A30U, G31C
# DNA 1: CAATCTGAATTCCGGTCTCCC
# DNA 2: TGGTGGCTACGACGGGATT
# B5: CACGGAC (DNA:RNA)
# RNA: B1 RNA with G26A, A27C, A28G, A29G, G31C
# DNA 1: CAATCTGAATTCCGGTCTCCC
# DNA 2: TGGTGGCTACGACGGGATT
# B6: UGCUUCG (DNA:RNA)
# RNA: B1 RNA with C25U, A27C, A28U, A29U, A30C
# DNA 1: CAATCTGAATTCCGGTCTCCC
# DNA 2: TGGTGGCTACGACGGGATT
# B7: UGCAGCA (DNA:RNA)
# RNA: B1 RNA with C25U, A27C, A29G, A30C, G31A
# DNA 1: CAATCTGAATTCCGGTCTCCC
# DNA 2: TGGTGGCTACGACGGGATT
# B8: GGAACGU (DNA:RNA)
# RNA: B1 RNA with C25G, A29C, A30G, G31U
# DNA 1: CAATCTGAATTCCGGTCTCCC
# DNA 2: TGGTGGCTACGACGGGATT
# B9: UAGUUCG (DNA:RNA)
# RNA: B1 RNA with C25U, G26A, A27G, A28U, A29U, A30C
# DNA 1: CAATCTGAATTCCGGTCTCCC
# DNA 2: TGGTGGCTACGACGGGATT
# B10: UCGGGUC (DNA:RNA)
# RNA: B2 RNA with G25U, A26C, C27G, C28G, C29G, U31C
# DNA 1: CAATCTGAATTCCGGTCTCCC
# DNA 2: TGGTGGCTACGACGGGATT
# B11: AAACGUU (DNA:RNA)
# RNA: B2 RNA with G25A, C27A, C29G
# DNA 1: CAATCTGAATTCCGGTCTCCC
# DNA 2: TGGTGGCTACGACGGGATT
# B12: GAACUGG (DNA:RNA)
# RNA: B2 RNA with C27A, C29U, U30G, U31G
# DNA 1: CAATCTGAATTCCGGTCTCCC
# DNA 2: TGGTGGCTACGACGGGATT
# B13: AGGGGAC (DNA:RNA)
# RNA: B1 RNA with C25A, A27G, A28G, A29G, G31C
# DNA 1: CAATCTGAATTCCGGTCTCCC
# DNA 2: TGGTGGCTACGACGGGATT
# B14: UCCAUUU (DNA:RNA)
# RNA: B2 RNA with G25U, A26C, C28A, C29U
# DNA 1: CAATCTGAATTCCGGTCTCCC
# DNA 2: TGGTGGCTACGACGGGATT
# B15: ACGGACG (DNA:RNA)
# RNA: B1 RNA with C25A, G26C, A27G, A28G, A30C
# DNA 1: CAATCTGAATTCCGGTCTCCC
# DNA 2: TGGTGGCTACGACGGGATT
# B16: UGAACAU (DNA:RNA)
# RNA: B1 RNA with C25U, A29C, G31U
# DNA 1: CAATCTGAATTCCGGTCTCCC
# DNA 2: TGGTGGCTACGACGGGATT
# B17: CCGCGCA (DNA:RNA)
# RNA: B1 RNA with G26C, A27G, A28C, A29G, A30C, G31A
# DNA 1: CAATCTGAATTCCGGTCTCCC
# DNA 2: TGGTGGCTACGACGGGATT
# B18: CCGAGCG (DNA:RNA)
# RNA: B1 RNA with G26C, A27G, A29G, A30C
# DNA 1: CAATCTGAATTCCGGTCTCCC
# DNA 2: TGGTGGCTACGACGGGATT
# B19: GUGCUUU (DNA:RNA)
# RNA: B2 RNA with A26U, C27G, C29U
# DNA 1: CAATCTGAATTCCGGTCTCCC
# DNA 2: TGGTGGCTACGACGGGATT
# B20: UUCGAUG (DNA:RNA)
# RNA: B1 RNA with C25U, G26U, A27C, A28G, A30U
# DNA 1: CAATCTGAATTCCGGTCTCCC
# DNA 2: TGGTGGCTACGACGGGATT
# B21: GGCCUAC (DNA:RNA)
# RNA: B2 RNA with A26G, C29U, U30A, U31C
# DNA 1: CAATCTGAATTCCGGTCTCCC
# DNA 2: TGGTGGCTACGACGGGATT
# B22: GUAUCAG (DNA:RNA)
# RNA: B1 RNA with C25G, G26U, A28U, A29C
# DNA 1: CAATCTGAATTCCGGTCTCCC
# DNA 2: TGGTGGCTACGACGGGATT
# B23: UUGCCCC (DNA:RNA)
# RNA: B2 RNA with G25U, A26U, C27G, U30C, U31C
# DNA 1: CAATCTGAATTCCGGTCTCCC
# DNA 2: TGGTGGCTACGACGGGATT
# B24: CAAAGGA (DNA:RNA)
# RNA: B1 RNA with G26A, A29G, A30G, G31A
# DNA 1: CAATCTGAATTCCGGTCTCCC
# DNA 2: TGGTGGCTACGACGGGATT
# B25: AAAAAAA (DNA:RNA)
# RNA: B1 RNA with C25A, G26A, G31A
# DNA 1: CAATCTGAATTCCGGTCTCCC
# DNA 2: TGGTGGCTACGACGGGATT
# B26: GGCACAG (DNA:RNA)
# RNA: B1 RNA with C25G, A27C, A29C
# DNA 1: CAATCTGAATTCCGGTCTCCC
# DNA 2: TGGTGGCTACGACGGGATT
# B27: AUCAACU (DNA:RNA)
# RNA: B1 RNA with C25A, G26U, A27C, A30C, G31U
# DNA 1: CAATCTGAATTCCGGTCTCCC
# DNA 2: TGGTGGCTACGACGGGATT
# B28: AACCCAG (DNA:RNA)
# RNA: B2 RNA with G25A, U30A, U31G
# DNA 1: CAATCTGAATTCCGGTCTCCC
# DNA 2: TGGTGGCTACGACGGGATT
# B29: AGUCGUU (DNA:RNA)
# RNA: B2 RNA with G25A, A26G, C27U, C29G
# DNA 1: CAATCTGAATTCCGGTCTCCC
# DNA 2: TGGTGGCTACGACGGGATT
# B30: AACUAGG (DNA:RNA)
# RNA: B1 RNA with C25A, G26A, A27C, A28U, A30G
# DNA 1: CAATCTGAATTCCGGTCTCCC
# DNA 2: TGGTGGCTACGACGGGATT
# B31: CAUGUCC (DNA:RNA)
# RNA: B1 RNA with G26A, A27U, A28G, A29U, A30C, G31C
# DNA 1: CAATCTGAATTCCGGTCTCCC
# DNA 2: TGGTGGCTACGACGGGATT
# Molecular target: T1, RBFOX1 RRM
# Test: EMSA; HiTS-Eq, 1 nM pool, 10 min; buffer printed only for the single-RNA assays: 10 mM Tris pH 7.5, 150 mM NaCl, 3.4 mM EDTA, 0.001% NP-40, 30 C
# Settings: tags: His6 N-terminal (pET28a); label: 5' 32P
# Outline: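 Purified RbFox RRM, wild type or mutant, was incubated for 10 min in 50 µL with 1 nM of a 5′-radiolabelled RNA pool carrying 7 randomized nucleotides, whose flanks were annealed to DNA oligonucleotides, over a series of increasing protein concentrations. Unbound RNA was resolved on 8% native PAGE, cut out, reverse-transcribed, barcoded by PCR and sequenced on an Illumina HiSeq 2500. Relative association constants were derived from changes in read counts for each RNA species versus the control reaction and normalised to the cognate motif.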
row,Binder,binding signal
1,B1,0.00581 KA relative to UGCAUGU
2,B2,0.00469 KA relative to UGCAUGU
3,B3,0.00861 KA relative to UGCAUGU
4,B4,0.00236 KA relative to UGCAUGU
5,B5,0.00842 KA relative to UGCAUGU
6,B6,0.0247 KA relative to UGCAUGU
7,B7,0.0136 KA relative to UGCAUGU
8,B8,0.0248 KA relative to UGCAUGU
9,B9,0.0246 KA relative to UGCAUGU
10,B10,0.0188 KA relative to UGCAUGU
11,B11,0.00507 KA relative to UGCAUGU
12,B12,0.0152 KA relative to UGCAUGU
13,B13,0.0113 KA relative to UGCAUGU
14,B14,0.00344 KA relative to UGCAUGU
15,B15,0.00371 KA relative to UGCAUGU
16,B16,0.00781 KA relative to UGCAUGU

row,Binder,binding signal
1,B17,0.00992 KA relative to UGCAUGU
2,B18,0.0112 KA relative to UGCAUGU
3,B19,0.0205 KA relative to UGCAUGU
4,B20,0.0199 KA relative to UGCAUGU
5,B21,0.00449 KA relative to UGCAUGU
6,B22,0.011 KA relative to UGCAUGU
7,B23,0.0117 KA relative to UGCAUGU
8,B24,0.00486 KA relative to UGCAUGU
9,B25,0.000895 KA relative to UGCAUGU
10,B26,0.00607 KA relative to UGCAUGU
11,B27,0.00232 KA relative to UGCAUGU
12,B28,0.000825 KA relative to UGCAUGU
13,B29,0.00948 KA relative to UGCAUGU
14,B30,0.00678 KA relative to UGCAUGU
15,B31,0.00562 KA relative to UGCAUGU
